Source: PubChem BioAssay (Tox21)
Several values for one entry are separate records, joined by “and”; a condition that tells them apart may be missing. Equal values may be shown once. The shares of active, inactive and inconclusive entries below differ from those in the screen. Where the call is inconclusive, the potency comes from a doubtful curve fit. Some compounds were tested as several samples or in several runs, with calls that do not always agree. Activity calls are given as the source filed them. The call rests on the fitted dose curve; in most records, active means well fitted curve in the direction sought with a large enough effect in the repeat runs; inconclusive means weak or mixed curves; inactive means no such curve, though single readings can be large; an effect the other way counts as inactive or inconclusive.

Columns and labels:
[1] = qHTS RealTime-Glo MT Cell Viability Assay in HepG2 cells - 16 hour (AID 1224885); further: nearly all actives have a fitted effect of over 50% in size
In short: (§1)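 Real-time, nonlytic viability: 600 HepG2 cells/well mixed with NanoLuc enzyme plus prosubstrate; 5 h settle, compound (DMSO) added by pintool; luminescence monitored over 40 h at 37 C.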

[2] = qHTS RealTime-Glo MT Cell Viability Assay in HEK293 cells - 24 hour (AID 1224886); further: nearly all actives have a fitted effect of over 50% in size
In short: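 Cells + reagent dispensed (600 cells/well, HEK293) → 5 h at 37 C/5% CO2 → 23 nL compound in DMSO pinned → 40 h at 37 C → luminescence read at 0, 8, 16, 24, 32, 40 h.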

[3] = A CellTox Green Cytotoxicity Assay to monitor cytotoxicity in HEK293 cells - 16 hour (AID 1224888); further: nearly all actives have a fitted effect of over 35% in size
In short: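 Each value comes from one timepoint of a single continuous run in which HEK293 cells with CellTox Green were exposed to compound for up to 40 h at 37 C, dye fluorescence rising with cell death.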

[4] = qHTS RealTime-Glo MT Cell Viability Assay in HepG2 cells - 0 hour (AID 1224889); further: nearly all actives have a fitted effect of over 50% in size
In short: as §1

[5] = A CellTox Green Cytotoxicity Assay to monitor cytotoxicity in HepG2 cells - 8 hour (AID 1224890); further: nearly all actives have a fitted effect of over 45% in size
In short: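 Continuous culture of HepG2 cells with a membrane-impermeant DNA dye; rising fluorescence marks dead cells. Compound exposure lasted up to 40 h at 37 C, with reads every 8 h from 0 h.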

[6] = qHTS RealTime-Glo MT Cell Viability Assay in HEK293 cells - 8 hour (AID 1224887); further: nearly all actives have a fitted effect of over 50% in size
In short: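 qHTS format; HEK293 cells with NanoLuc/prosubstrate reagent, 37 C/5% CO2 for 5 h pre-dosing; compounds 23 nL in DMSO; luminescence at each time point reflects viable cells.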

[7] = qHTS assay to identify small molecule antagonists of the estrogen receptor alpha (ER-alpha) signaling pathway using the BG1 cell line in the presence of 0.1 nM 17-beta-estradiol - cell viability counter screen (AID 1259241); further: nearly all actives have a fitted effect of over 40% in size
In short: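 CellTiter-Fluor read (30 min, 37C) on ER-alpha/ERE-luc VM7Luc4E2 cells; 22 hr compound treatment; agonist 0.1 nM E2 final; same-well multiplex.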
Potency means the concentration at half of the fitted maximal effect; tags describe the fitted curve by direction and shape.

Row | Compound | Potency [1] | Potency [2] | Potency [3] | Potency [4] | Potency [5] | Potency [6] | Potency [7]
1 | CCCCCCOC(=O)c1ccc(O)cc1 | inconclusive: 43.6 µM [cytotoxic, partial curve, poor fit] | active: 43.7 µM and active: 24.5 µM | inconclusive: 55 µM [activator, single point] | inactive | inconclusive: 24.5 µM [activator, partial curve] | – | –
2 | Oc1ccc(Cl)cc1C1CCCC1 | inactive | inconclusive: 24.5 µM [cytotoxic, full curve] | inconclusive: 54.9 µM [activator, single point] | – | active: 49 µM | – | –
3 | OCCN1CCN(CC/C=C2/c3ccccc3Sc3ccc(C(F)(F)F)cc32)CC1 | active: 23.9 µM | active: 19 µM | – | inconclusive: 21.3 µM [rising, partial curve] | – | active: 21.3 µM | –
4 | COc1cc(/C=C/C(=O)CC(=O)/C=C/c2ccc(O)c(OC)c2)ccc1O | inconclusive: 49.3 µM [cytotoxic, partial curve] | – | active: 49.3 µM | inconclusive: 43.9 µM [cytotoxic, partial curve, poor fit] | – | active: 6.96 µM | –
5 | C[C@@H]1CC(=O)NN=C1c1ccc(NN=C(C#N)C#N)cc1 | inconclusive: 19 µM [cytotoxic, partial curve, poor fit] and inconclusive: 21.3 µM [cytotoxic, partial curve, poor fit] | inconclusive: 26.8 µM [cytotoxic, single point] | – | inconclusive: 16.9 µM [cytotoxic, partial curve] and inconclusive: 21.3 µM [cytotoxic, partial curve] | – | – | –
6 | CC1=C(C(=O)OC(C)C)C(c2cccc([N+](=O)[O-])c2)C(C(=O)OC2CN(C(c3ccccc3)c3ccccc3)C2)=C(N)N1 (stereo unspecified) | active: 21.3 µM | inconclusive: 21.3 µM [cytotoxic, partial curve] | – | – | inconclusive: 23.9 µM [activator, single point] | inconclusive: 23.9 µM [cytotoxic, partial curve, poor fit] | –
7 | CC(Cc1ccc(O)c(O)c1)C(C)Cc1ccc(O)c(O)c1 (stereo unspecified) | active: 43.6 µM | active: 34.7 µM | – | – | inconclusive: 54.9 µM [activator, single point] | active: 43.6 µM | –
8 | CC(C)(C)NC(=O)[C@@H]1C[C@@H]2CCCC[C@@H]2CN1C[C@@H](O)[C@H](Cc1ccccc1)NC(=O)[C@H](CC(N)=O)NC(=O)c1ccc2ccccc2n1 | active: 55.7 µM | – | – | – | – | active: 19.7 µM | active: 27.7 µM
9 | CN1CCN(CCCN2c3ccccc3Sc3ccc(C(F)(F)F)cc32)CC1 | inconclusive: 23.9 µM [cytotoxic, partial curve] | – | active: 23.9 µM | inconclusive: 23.9 µM [rising, partial curve] | inconclusive: 26.8 µM [activator, single point] | active: 23.9 µM | –
10 | CC(C)(C)c1ccc(C(=O)CCCN2CCC(OC(c3ccccc3)c3ccccc3)CC2)cc1 | active: 21.3 µM | active: 8.49 µM | active: 21.3 µM | – | active: 23.9 µM | active: 9.52 µM | inconclusive: 33.5 µM [cytotoxic, single point]
11 | CC(C)(c1ccccc1)c1ccc(Nc2ccc(C(C)(C)c3ccccc3)cc2)cc1 | inconclusive: 38.9 µM [cytotoxic, partial curve, poor fit] | – | – | – | – | inconclusive: 34.6 µM [cytotoxic, partial curve, poor fit] | –
12 | CCCCCCCCCOC(=O)c1ccc(O)cc1 | inconclusive: 54.2 µM [cytotoxic, single point] | – | – | – | – | active: 38.3 µM | inconclusive: 75.9 µM [cytotoxic, single point]
13 | CCCCCCCC/C=C\CCCCCCCCOCCO | inconclusive: 63.7 µM [cytotoxic, partial curve, poor fit] | – | – | – | inconclusive: 63.7 µM [activator, partial curve] | inconclusive: 6.37 µM [cytotoxic, full curve] | active: 63.1 µM
14 | O=C1c2c(O)ccc([N+](=O)[O-])c2C(=O)c2c([N+](=O)[O-])ccc(O)c21 | active: 24.3 µM | – | – | inconclusive: 43.2 µM [cytotoxic, partial curve] | – | active: 7.69 µM | active: 30.4 µM
15 | O=C(c1cc(O)c(O)c(O)c1)c1ccc(O)c(O)c1O | inconclusive: 38.8 µM [cytotoxic, partial curve, poor fit] and inconclusive: 54.9 µM [cytotoxic, partial curve, poor fit] | inconclusive: 49 µM [cytotoxic, single point] | – | – | – | inconclusive: 12.3 µM [cytotoxic, full curve] and inconclusive: 19 µM [cytotoxic, partial curve, poor fit] | inconclusive: 54.3 µM [cytotoxic, partial curve] and inconclusive: 68.6 µM [cytotoxic, single point] and inconclusive: 23.7 µM [cytotoxic, partial curve, poor fit]
16 | CCCN(CCC)C(=O)C(CCC(=O)OCCCN1CCN(CCOC(=O)Cc2c(C)n(C(=O)c3ccc(Cl)cc3)c3ccc(OC)cc23)CC1)NC(=O)c1ccccc1 (stereo unspecified) | inconclusive: 19 µM [cytotoxic, partial curve, poor fit] | inconclusive: 21.3 µM [cytotoxic, partial curve] | – | – | inconclusive: 26.8 µM [activator, single point] | – | –
17 | Clc1ccc(C(c2ccccc2Cl)C(Cl)Cl)cc1 (stereo unspecified) | inconclusive: 61.7 µM [cytotoxic, partial curve, poor fit] | – | – | – | inconclusive: 61.7 µM [activator, partial curve, poor fit] | inconclusive: 38.9 µM [cytotoxic, partial curve] | –
18 | CCC(C)(C)c1cc(O)c(C(C)(C)CC)cc1O | inconclusive: 43.6 µM [cytotoxic, partial curve] | – | inconclusive: 61.6 µM [activator, single point] | – | – | active: 21.9 µM | –
19 | CN(C)CCCN1c2ccccc2CCc2ccc(Cl)cc21 | active: 49 µM and inconclusive: 26.8 µM [cytotoxic, partial curve] | – | – | inconclusive: 27.5 µM [rising, partial curve] and inconclusive: 15.1 µM [rising, partial curve] | inconclusive: 54.9 µM [activator, single point] | active: 43.6 µM | inconclusive: 68.6 µM [cytotoxic, single point] and inconclusive: 33.5 µM [cytotoxic, partial curve, poor fit]
20 | COc1ccc2nc(S(=O)Cc3ncc(C)c(OC)c3C)[nH]c2c1 (stereo unspecified) | inconclusive: 54.3 µM [cytotoxic, partial curve, poor fit] | active: 21.6 µM | – | inconclusive: 54.3 µM [cytotoxic, single point] | – | active: 24.3 µM | inconclusive: 53.8 µM [cytotoxic, partial curve]
21 | CCCCCCC(C)Nc1ccc(Nc2ccccc2)cc1 (stereo unspecified) | inconclusive: 54.9 µM [cytotoxic, partial curve] | – | – | inconclusive: 24.5 µM [cytotoxic, partial curve] | – | active: 19.5 µM | –
22 | CC(C)CCCCCCc1ccc(O)cc1 | inconclusive: 25 µM [cytotoxic, partial curve] | inconclusive: 49 µM [cytotoxic, single point] | – | inconclusive: 55.9 µM [cytotoxic, single point] | – | inconclusive: 54.9 µM [cytotoxic, partial curve] | –
23 | CC(C)(C)CC(C)(C)c1ccc(O)c(Cc2ccc(Cl)cc2Cl)c1 | inconclusive: 23.9 µM [cytotoxic, single point] | active: 23.9 µM | inconclusive: 26.8 µM [activator, single point] | – | inconclusive: 26.8 µM [activator, single point] | – | inconclusive: 33.5 µM [cytotoxic, single point]
24 | CC[C@@]1(O)C(=O)OCc2c1cc1n(c2=O)Cc2c-1nc1ccccc1c2/C=N/OC(C)(C)C | inconclusive: 3.79 µM [cytotoxic, partial curve, poor fit] | – | – | – | – | inconclusive: 0.12 µM [cytotoxic, full curve] | –
25 | C/C=C/C(=O)Oc1c(CCCCCC(C)C)cc([N+](=O)[O-])cc1[N+](=O)[O-] | active: 21.9 µM | – | inconclusive: 43.6 µM [activator, single point] | inconclusive: 49 µM [cytotoxic, partial curve, poor fit] | – | inconclusive: 21.9 µM [cytotoxic, partial curve] | active: 27.3 µM
26 | Cc1c(C)n(Cc2ccccc2)c2ccc(C(=O)OCCN(C)C)cc12 | inconclusive: 21.3 µM [cytotoxic, partial curve] | inconclusive: 10.7 µM [cytotoxic, partial curve, poor fit] | – | – | inconclusive: 26.8 µM [activator, single point] | inactive | –
